# Reference: the supplement of paper PMC8728848
# Some of the results follow.
# Key:
# Experiment in all cases: glycan array binding signal (z-score within array); higher = stronger binding
# Conditions in all cases: glycan notation: IUPAC condensed, linker removed
# Neu5Ac(a2-3)GalNAc = biological target: Neu5Ac(a2-3)GalNAc
# Procedure, shortened: (§1)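 Arrays were curated from the Consortium for Functional Glycomics database, 3228 in total, and kept only where the protein sequence was available. Binding is expressed as a within-array Z-score. This score was averaged across arrays of the same protein sequence at different concentrations or buffers and across linkers, and negative values can be read as non-binding.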
# [1] = biological target: Neu5Ac(a2-3)GalNAc(b1-4)GlcNAc
# Procedure, shortened: as §1
# [2] = biological target: Neu5Ac(a2-3)[GalNAc(b1-4)]Gal(b1-4)Glc
# Procedure, shortened: as §1
# [3] = biological target: Neu5Ac(a2-3)[GalNAc(b1-4)]Gal(b1-4)GlcNAc
# Procedure, shortened: as §1
# [4] = biological target: Neu5Ac(a2-3)[GalNAc(b1-4)]Gal(b1-4)GlcNAc(b1-3)GalNAc
# Procedure, shortened: as §1
# [5] = biological target: Neu5Ac(a2-3)[Neu5Ac(a2-6)]GalNAc
# Procedure, shortened: as §1
# Neu5Ac(a2-6)Gal = biological target: Neu5Ac(a2-6)Gal
# Procedure, shortened: as §1
# [6] = biological target: Neu5Ac(a2-6)Gal(b1-3)GlcNAc(b1-3)[Gal(b1-4)GlcNAc(b1-6)]Gal(b1-4)Glc
# Procedure, shortened: as §1
# Neu5Ac(a2-6)Gal(b1-4)Glc = biological target: Neu5Ac(a2-6)Gal(b1-4)Glc
# Procedure, shortened: as §1
# [7] = biological target: Neu5Ac(a2-6)Gal(b1-4)GlcNAc
# Procedure, shortened: as §1
# [8] = biological target: Neu5Ac(a2-6)Gal(b1-4)GlcNAc(b1-2)Man
# Procedure, shortened: as §1
# [9] = biological target: Neu5Ac(a2-6)Gal(b1-4)GlcNAc(b1-2)Man(a1-3)Man(b1-4)GlcNAc(b1-4)GlcNAc
# Procedure, shortened: as §1
# [10] = biological target: Neu5Ac(a2-6)Gal(b1-4)GlcNAc(b1-2)Man(a1-3)[Gal(b1-4)GlcNAc(b1-2)Man(a1-6)]Man(b1-4)GlcNAc(b1-4)GlcNAc
# Procedure, shortened: as §1
# [11] = biological target: Neu5Ac(a2-6)Gal(b1-4)GlcNAc(b1-2)Man(a1-3)[GlcNAc(b1-2)Man(a1-6)]Man(b1-4)GlcNAc(b1-4)GlcNAc
# Procedure, shortened: as §1
# [12] = biological target: Neu5Ac(a2-6)Gal(b1-4)GlcNAc(b1-2)Man(a1-3)[GlcNAc(b1-4)][Neu5Ac(a2-6)Gal(b1-4)GlcNAc(b1-2)Man(a1-6)]Man(b1-4)GlcNAc(b1-4)GlcNAc
# Procedure, shortened: as §1
# [13] = biological target: Neu5Ac(a2-6)Gal(b1-4)GlcNAc(b1-2)Man(a1-3)[Man(a1-6)]Man(b1-4)GlcNAc(b1-4)GlcNAc
# Procedure, shortened: as §1
# [14] = biological target: Neu5Ac(a2-6)Gal(b1-4)GlcNAc(b1-2)Man(a1-3)[Neu5Ac(a2-3)Gal(b1-4)GlcNAc(b1-2)Man(a1-6)]Man(b1-4)GlcNAc(b1-4)GlcNAc
# Procedure, shortened: as §1
# [15] = biological target: Neu5Ac(a2-6)Gal(b1-4)GlcNAc(b1-2)Man(a1-3)[Neu5Ac(a2-6)Gal(b1-4)GlcNAc(b1-2)Man(a1-6)]Man(b1-4)GlcNAc(b1-4)GlcNAc
# Procedure, shortened: as §1
# [16] = biological target: Neu5Ac(a2-6)Gal(b1-4)GlcNAc(b1-2)Man(a1-3)[Neu5Ac(a2-6)Gal(b1-4)GlcNAc(b1-2)Man(a1-6)]Man(b1-4)GlcNAc(b1-4)[Fuc(a1-6)]GlcNAc
# Procedure, shortened: as §1
# [17] = biological target: Neu5Ac(a2-6)Gal(b1-4)GlcNAc(b1-2)Man(a1-6)Man(b1-4)GlcNAc(b1-4)GlcNAc
# Procedure, shortened: as §1
# [18] = biological target: Neu5Ac(a2-6)Gal(b1-4)GlcNAc(b1-2)Man(a1-6)[Gal(b1-4)GlcNAc(b1-2)Man(a1-3)]Man(b1-4)GlcNAc(b1-4)GlcNAc
# Procedure, shortened: as §1
# [19] = biological target: Neu5Ac(a2-6)Gal(b1-4)GlcNAc(b1-2)Man(a1-6)[GlcNAc(b1-2)Man(a1-3)]Man(b1-4)GlcNAc(b1-4)GlcNAc
# Procedure, shortened: as §1
# [20] = biological target: Neu5Ac(a2-6)Gal(b1-4)GlcNAc(b1-2)Man(a1-6)[Man(a1-3)]Man(b1-4)GlcNAc(b1-4)GlcNAc
# Procedure, shortened: as §1
# [21] = biological target: Neu5Ac(a2-6)Gal(b1-4)GlcNAc(b1-2)[Neu5Ac(a2-6)Gal(b1-4)GlcNAc(b1-4)]Man(a1-3)[GlcNAc(b1-4)][Neu5Ac(a2-6)Gal(b1-4)GlcNAc(b1-2)[Neu5Ac(a2-6)Gal(b1-4)GlcNAc(b1-6)]Man(a1-6)]Man(b1-4)GlcNAc(b1-4)GlcNAc
# Procedure, shortened: as §1
# [22] = biological target: Neu5Ac(a2-6)Gal(b1-4)GlcNAc(b1-2)[Neu5Ac(a2-6)Gal(b1-4)GlcNAc(b1-4)]Man(a1-3)[GlcNAc(b1-4)][Neu5Ac(a2-6)Gal(b1-4)GlcNAc(b1-4)Man(a1-6)]Man(b1-4)GlcNAc(b1-4)GlcNAc
# Procedure, shortened: as §1
# [23] = biological target: Neu5Ac(a2-6)Gal(b1-4)GlcNAc(b1-2)[Neu5Ac(a2-6)Gal(b1-4)GlcNAc(b1-6)]Man(a1-6)[Neu5Ac(a2-6)Gal(b1-4)GlcNAc(b1-2)Man(a1-3)][GlcNAc(b1-4)]Man(b1-4)GlcNAc(b1-4)GlcNAc
# Procedure, shortened: as §1
# [24] = biological target: Neu5Ac(a2-6)Gal(b1-4)GlcNAc(b1-3)Gal(b1-3)GlcNAc
# Procedure, shortened: as §1
# [25] = biological target: Neu5Ac(a2-6)Gal(b1-4)GlcNAc(b1-3)Gal(b1-4)GlcNAc
# Procedure, shortened: as §1
# [26] = biological target: Neu5Ac(a2-6)Gal(b1-4)GlcNAc(b1-3)Gal(b1-4)GlcNAc(b1-2)Man(a1-3)[Neu5Ac(a2-6)Gal(b1-4)GlcNAc(b1-3)Gal(b1-4)GlcNAc(b1-2)Man(a1-6)]GalNAc
# Procedure, shortened: as §1
# [27] = biological target: Neu5Ac(a2-6)Gal(b1-4)GlcNAc(b1-3)Gal(b1-4)GlcNAc(b1-3)Gal(b1-4)GlcNAc
# Procedure, shortened: as §1
# [28] = biological target: Neu5Ac(a2-6)Gal(b1-4)GlcNAc(b1-3)Gal(b1-4)GlcNAc(b1-3)Gal(b1-4)GlcNAc(b1-2)Man(a1-3)[Neu5Ac(a2-6)Gal(b1-4)GlcNAc(b1-3)Gal(b1-4)GlcNAc(b1-3)Gal(b1-4)GlcNAc(b1-2)Man(a1-6)]GalNAc
# Procedure, shortened: as §1
# [29] = biological target: Neu5Ac(a2-6)Gal(b1-4)GlcNAc(b1-3)Gal(b1-4)GlcNAc(b1-3)GalNAc
# Procedure, shortened: as §1
# [30] = biological target: Neu5Ac(a2-6)Gal(b1-4)GlcNAc(b1-3)Gal(b1-4)GlcNAc(b1-3)[Neu5Ac(a2-6)Gal(b1-4)GlcNAc(b1-3)Gal(b1-4)GlcNAc(b1-6)]GalNAc
# Procedure, shortened: as §1
# [31] = biological target: Neu5Ac(a2-6)Gal(b1-4)GlcNAc(b1-3)Gal(b1-4)GlcNAc(b1-6)[Gal(b1-3)]GalNAc
# Procedure, shortened: as §1
# [32] = biological target: Neu5Ac(a2-6)Gal(b1-4)GlcNAc(b1-3)Gal(b1-4)[Fuc(a1-3)]GlcNAc(b1-3)Gal(b1-4)[Fuc(a1-3)]GlcNAc
# Procedure, shortened: as §1
# [33] = biological target: Neu5Ac(a2-6)Gal(b1-4)GlcNAc(b1-3)GalNAc
# Procedure, shortened: as §1
# [34] = biological target: Neu5Ac(a2-6)Gal(b1-4)GlcNAc(b1-3)[Neu5Ac(a2-6)Gal(b1-4)GlcNAc(b1-6)]GalNAc
# Procedure, shortened: as §1
binder,measurement,setting,value
GSL-I-B4 (Griffonia simplicifolia) (protein) NFWSDVEDSIIFQGDANTTAGTLQLCKTNQYGTPLQWSAGRALYSDPVQLWDNKTESVASFYTEFTFFLKITGNGPADGLAFFLAPPDSDVKDAGEYLGLFNKSTATQPSKNQVVAVEFDTWTNPNFPEPSYRHIGINVNSIVSVATKRWEDSDIFSGKIATARISYDGSAEILTVVLSYPDGSDYILSHSVDMRQNLPESVRVGISASTGNNQFLTVYILSWRFSSNLQSTSVKAAMEPEITRTVV,glycan array binding signal (z-score),Neu5Ac(a2-3)GalNAc,-0.158
same,glycan array binding signal (z-score),[1],-0.157
same,glycan array binding signal (z-score),[2],-0.194
same,glycan array binding signal (z-score),[3],-0.141
same,glycan array binding signal (z-score),[4],-0.03
same,glycan array binding signal (z-score),[5],-0.201
same,glycan array binding signal (z-score),Neu5Ac(a2-6)Gal,-0.175
same,glycan array binding signal (z-score),[6],-0.191
same,glycan array binding signal (z-score),Neu5Ac(a2-6)Gal(b1-4)Glc,-0.152
same,glycan array binding signal (z-score),[7],-0.201
same,glycan array binding signal (z-score),[8],-0.174
same,glycan array binding signal (z-score),[9],-0.125
same,glycan array binding signal (z-score),[10],-0.206
same,glycan array binding signal (z-score),[11],-0.139
same,glycan array binding signal (z-score),[12],-0.165
same,glycan array binding signal (z-score),[13],-0.112
same,glycan array binding signal (z-score),[14],-0.201
same,glycan array binding signal (z-score),[15],-0.174
same,glycan array binding signal (z-score),[16],-0.167
same,glycan array binding signal (z-score),[17],-0.238
same,glycan array binding signal (z-score),[18],-0.199
same,glycan array binding signal (z-score),[19],-0.139
same,glycan array binding signal (z-score),[20],-0.197
same,glycan array binding signal (z-score),[21],-0.151
same,glycan array binding signal (z-score),[22],-0.191
same,glycan array binding signal (z-score),[23],-0.133
same,glycan array binding signal (z-score),[24],-0.185
same,glycan array binding signal (z-score),[25],-0.173
same,glycan array binding signal (z-score),[26],-0.121
same,glycan array binding signal (z-score),[27],-0.182
same,glycan array binding signal (z-score),[28],-0.051
same,glycan array binding signal (z-score),[29],-0.197
same,glycan array binding signal (z-score),[30],0.078
same,glycan array binding signal (z-score),[31],-0.169
same,glycan array binding signal (z-score),[32],-0.135
same,glycan array binding signal (z-score),[33],-0.209
same,glycan array binding signal (z-score),[34],-0.161
